Experimental data: article PMC4336329 (PLoS ONE, 2015)
The campaign covered roughly 310,000 compounds. About 2,200 (0.71%) showed an effect of 50% or more. The effect is printed as a negative number. The list shows a part of the results.

molecular target: human ether-à-go-go-related gene (hERG) potassium channel (human, UniProt Q12809); test: primary screen, population patch clamp on CHO cells stably expressing hERG
Sequence (Q12809 whole entry, looked up): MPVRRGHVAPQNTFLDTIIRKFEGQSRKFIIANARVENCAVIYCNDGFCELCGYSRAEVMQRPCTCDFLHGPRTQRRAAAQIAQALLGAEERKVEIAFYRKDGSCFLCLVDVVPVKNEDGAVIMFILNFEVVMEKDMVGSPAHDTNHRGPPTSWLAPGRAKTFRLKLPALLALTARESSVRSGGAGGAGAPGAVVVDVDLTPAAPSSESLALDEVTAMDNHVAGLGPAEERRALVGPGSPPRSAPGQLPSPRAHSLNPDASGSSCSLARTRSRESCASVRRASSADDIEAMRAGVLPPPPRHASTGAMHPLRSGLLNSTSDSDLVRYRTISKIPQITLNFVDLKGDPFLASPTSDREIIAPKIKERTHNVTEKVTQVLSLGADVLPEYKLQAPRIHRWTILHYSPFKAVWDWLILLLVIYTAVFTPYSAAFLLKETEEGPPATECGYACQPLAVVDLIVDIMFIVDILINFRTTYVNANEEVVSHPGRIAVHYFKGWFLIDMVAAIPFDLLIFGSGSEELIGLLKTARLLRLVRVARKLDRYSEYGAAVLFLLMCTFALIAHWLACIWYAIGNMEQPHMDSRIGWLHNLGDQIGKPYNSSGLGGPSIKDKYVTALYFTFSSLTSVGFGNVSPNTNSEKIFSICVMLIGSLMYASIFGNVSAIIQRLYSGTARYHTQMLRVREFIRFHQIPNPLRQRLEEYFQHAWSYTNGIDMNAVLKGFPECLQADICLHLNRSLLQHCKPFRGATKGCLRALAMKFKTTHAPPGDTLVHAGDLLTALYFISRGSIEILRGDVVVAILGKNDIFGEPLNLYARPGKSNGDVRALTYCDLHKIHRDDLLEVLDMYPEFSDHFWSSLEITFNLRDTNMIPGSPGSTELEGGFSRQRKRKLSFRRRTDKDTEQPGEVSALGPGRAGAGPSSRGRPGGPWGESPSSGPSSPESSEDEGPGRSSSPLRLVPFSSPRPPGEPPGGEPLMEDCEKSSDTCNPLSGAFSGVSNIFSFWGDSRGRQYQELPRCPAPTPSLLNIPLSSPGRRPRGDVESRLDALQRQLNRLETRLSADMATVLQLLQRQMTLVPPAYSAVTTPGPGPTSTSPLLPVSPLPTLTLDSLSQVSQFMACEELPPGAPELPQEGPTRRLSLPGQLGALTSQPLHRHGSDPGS

| SMILES | hERG current change (%, negative = inhibition) at 1uM |
| --- | --- |
| COc1cc(NC(=O)C2CCCC2)c(OC)cc1Cl | -0.316% |
| Cc1ccc(N=Cc2c(O)n(-c3nccs3)c(=O)c3ccccc23)c(C)c1 | -1.41% |
| Cc1ccc(SCCNC(=O)/C=C/c2ccccc2Cl)cc1 | 11% |
| Cc1ccn2c(NC(=O)c3ccccc3)c(-c3ccccc3)nc2c1 | 5.85% |
| CCC(=O)N1CCc2cc(S(=O)(=O)CCC(=O)NCc3cccc(OC)c3)ccc21 | 14.9% |
| COc1ccccc1C(=O)Nc1nc2nc(-c3ccccc3)cc(=O)n2[nH]1 | 6.43% |
| O=C(Cn1nnc(-c2ccccc2Cl)n1)NCc1ccc2c(c1)OCO2 | 7% |
| CCN1C(=O)/C(=C/C=C2\C=CN(CC)c3ccccc32)SC1=S | 3.78% |
| O=C(CCc1nnc(COc2ccccc2)o1)NC1(c2ccccc2)CC1 | 6.97% |
| Cn1c(SCC(=O)Nc2ccccc2F)nnc1C1CCCCC1 | 11.1% |
| COC(=O)C1CSc2[nH]c(=O)sc2C1c1ccccc1 (stereo not drawn) | -6.76% |
| O=C(COC(=O)c1ccc(S(=O)(=O)NCc2ccco2)cc1)Nc1ccc(Cl)cn1 | 19.3% |
| Cc1c(Cl)cccc1N(CC(=O)N1CCCCCC1)S(C)(=O)=O | 7.71% |
| CC(=O)c1sc2nc(CSc3nnnn3-c3ccccc3)[nH]c(=O)c2c1C | 7.38% |
| COCCN(C(=O)CSc1nc2ccc(C)cc2[nH]1)c1c(N)n(Cc2ccccc2)c(=O)[nH]c1=O | 15.5% |
| Cc1cc(C)nc(NS(=O)(=O)c2ccc(NC(=S)NC(=O)CC(C)C)cc2)n1 | 5.67% |
| CCn1c2ccccc2c2cc(NC(=O)c3ccc(=O)oc3)ccc21 | 11.5% |
| COc1ccc(Cn2nnc(C(=O)Nc3ccc4c(c3)OCCO4)c2N)cc1Br | 1.32% |
| Cc1cc(-c2ccccc2)c2c(=O)[nH][nH]c2n1 | 20.6% |
| O=C(O)CCCC(=O)Nc1ccc(Cl)c(Cl)c1 | 13.1% |
| Cc1ccc(NS(=O)(=O)c2cccc(C(=O)NNC(=O)c3cccn3C)c2)c(C)c1 | 8.39% |
| CCN(C(=O)C1CCCN(c2ncnc3c2nc2n3CCCCC2)C1)c1cccc(Cl)c1 (stereo not drawn) | 5.63% |

| SMILES | hERG current change (%, negative = inhibition) at 1uM |
| --- | --- |
| Cc1cc(C(=O)Cn2nc(C(=O)O)c3ccccc3c2=O)c(C)n1-c1ccc(F)cc1 | 10.5% |
| Cc1ccccc1Cn1nc(C)c(NC(=O)c2cc(-c3cccs3)on2)c1C | 7.98% |
| CCOC(=O)c1c(NC(=O)CC(C)C)sc(C(C)=O)c1C | 8.11% |
| CC1(C)Cc2nc3sc(C(=O)NCCO)c(N)c3cc2CO1 | -11.7% |
| CCOC(=O)C(C)Oc1cccc2c(=O)n(CC(=O)NCc3ccccc3)ccc12 (stereo not drawn) | 8.81% |
| CCOC(=O)c1c(-c2ccc(C)o2)csc1NC(=S)NC(=O)c1ccccc1Br | 15.7% |
| Cl.c1ccc2c(Nc3ccc4c(c3)OCCO4)c3c(nc2c1)CCC3 | -13.9% |
| O=C1NC(=Nc2ccccc2Cl)S/C1=C\c1cccc([N+](=O)[O-])c1O | 13.3% |
| O=C(CN1CCN(S(=O)(=O)c2ccccc2)CC1)Nc1ccccc1C(=O)c1ccccc1 | -2.35% |
| Cn1nc(C(=O)OCc2ccccc2F)c2ccccc2c1=O | 13.8% |
| CC(C)(C)c1cc(NC(=O)Nc2ccc(Br)cc2Cl)no1 | 11.9% |
| CC(C)Cn1c(SCC(=O)N2CCN(C(=O)c3ccco3)CC2)nc2ccccc2c1=O | -42.9% |
| CCc1ccccc1NC(=O)Nc1cccn(Cc2ccccc2F)c1=O | 6.57% |
| COc1ccc2c(c1)C(c1ccc(Cl)cc1)NC(=O)C2 (stereo not drawn) | 5.97% |
| N#C/C(Cn1c[n+](NC(=O)Nc2ccccc2)cn1)=N/O.[Cl-] | 14.5% |
| O=C(Cn1ncc2c([nH]c3ccccc32)c1=O)NCC1CCN(Cc2ccc(F)cc2)CC1 | -5.39% |
| O=C(O)c1[nH]c2ccccc2c1C(c1ccccc1)c1c(C(=O)O)[nH]c2ccccc12 | 14.3% |
| Cc1cccc(CCNCc2cc3ccc(C)cc3[nH]c2=O)c1 | -54.6% |
| COc1ccc(/C=N\NC(=O)c2cccc(Br)c2)c(OC)c1 | 9.82% |
| COc1ccc2[nH]c(=O)c(CN(C(=O)c3ccccn3)c3ccccc3)cc2c1 | 16.6% |
| CC1(C)Cc2c(c(N3CCOCC3)nc3snc(N)c23)CO1 | 7.63% |
| CC(=O)Nc1cccc(C(=O)NC(C)c2ccc(-n3ccnc3)cc2)c1 (stereo not drawn) | 8.8% |

| SMILES | hERG current change (%, negative = inhibition) at 1uM |
| --- | --- |
| Cc1occc1-c1nnc(SCC(=O)N2CCCCC2C)o1 (stereo not drawn) | 0.883% |
| CCOC(=O)c1c(C)nc2sc3c(=O)n(-c4ccc(C(C)=O)cc4)nnc3c2c1-c1ccc(OC)cc1 | 11.7% |
| O=C(CSc1n[nH]c(-c2cccs2)n1)N1CCCc2ccccc21 | -2.14% |
| CCn1c(C)c(C(C)=O)c(N2CCCC2)nc1=S | -3.85% |
| C=CCOC(=O)C1=C(C)NC(SCC(=O)Nc2nccs2)=C(C#N)C1c1ccc(Cl)cc1 (stereo not drawn) | 10.7% |
| Cc1ccc(C(=O)N/C(=C/c2ccccc2F)C(=O)NCCCn2ccnc2)cc1 | -22.5% |
| COc1cc(/C=N/NC(=O)C2(O)c3ccccc3-c3ccccc32)ccc1O | 7.54% |
| CC(=O)N1c2ccccc2N(Cc2ccc(C)cc2C)C(=O)C1(C)C | 0.978% |
| COc1ccc(CC(=O)NNC(=O)c2cccnc2)cc1OC | 13.2% |
| CC1(C)C(=O)Nc2ccccc2N1C(=O)COC(=O)CSc1ccc(F)cc1 | 10.5% |
| NC1=NC(=O)/C(=C\c2cccnc2)S1 | 8.22% |
| CC1(C)CC(=O)C2=C(C1)Nc1cc3c(cc1C2c1ccc2c(c1)OCO2)OCO3 (stereo not drawn) | 0.897% |
| O=C(O)Cc1ccc(C(=O)c2ccccc2F)s1 | 8.68% |
| O=C(Nc1ccccc1C(=O)N1CCOCC1)C1COc2ccccc2O1 (stereo not drawn) | 4.67% |
| CSc1nc2nc(-c3cccs3)cc(C(F)(F)F)c2c(=O)[nH]1 | 18.3% |
| Cc1nc(SCC(=O)NCCc2ccccc2)c2oc3ccccc3c2n1 | -0.61% |
| COc1ccc(C2C(C(=O)Nc3cc(C)on3)c3ccccc3C(=O)N2C)cc1 (stereo not drawn) | 8.27% |
| COc1cc(N2Cc3ccccc3C2)ccc1C=O | 12.4% |
| O[C@H]1c2ccccc2[C@H](Cc2cncs2)[C@@H]1Br | 11.9% |
| Cn1cccc1/C=C1\SC(=S)N(Nc2ccccc2)C1=O | 11.5% |
| COc1ccc(S(=O)(=O)CCC(=O)O)cc1 | 18.3% |
| CCCC(=O)Nc1cc(C)c(NC(=O)Cc2ccccc2)cn1 | 3.08% |

| SMILES | hERG current change (%, negative = inhibition) at 1uM |
| --- | --- |
| COc1cc(/C=N/NC(=O)NC23CC4CC(CC(C4)C2)C3)ccc1O | -7.39% |
| S=c1[nH]nc(-c2ccc3ncccc3c2)n1-c1ccc2c(c1)OCCO2 | 7.14% |
| Cc1nc2cc(NC(=O)NCCC3=CCCCC3)ccc2o1 | 13.4% |
| CCc1nnc(NC(=O)CSCc2cc(=O)n3cc(C)sc3n2)s1 | 2.32% |
| Cc1cc(Cl)ccc1N(CC(=O)NCc1ccccc1)S(C)(=O)=O | 9.8% |
| O=[N+]([O-])c1cc(/C=N/O)ccc1SCc1ccccc1Cl | -5.27% |
| O=C(c1cccc(C(F)(F)F)c1)C1CCCN(C(=O)CCCN2CCCC2=O)C1 (stereo not drawn) | 6.97% |
| COc1cc(O)c(CCC(=O)c2ccc(OC)c(OC)c2)c(OC)c1 | 10.8% |
| Cc1ccc(CCNC(=O)c2ccc(CS(=O)(=O)c3ccccc3C)o2)cc1 | 21.5% |
| S=c1[nH]nc(-c2cc(-c3ccccc3)n[nH]2)n1/N=C/c1ccc(Br)s1 | 14.4% |
| C/C=C/C(=O)OCC(=O)NC(=O)NC(C)C | 3.02% |
| CCOC(=O)c1ccc(NC(=S)Nc2ccccc2N)cc1 | 9.23% |
| O=C(c1ccoc1)N1CCC2(CC1)Oc1ccc(F)cc1C(=O)C21CC(c2ccc(Cl)cc2)=NO1 (stereo not drawn) | 18% |
| O=C(Nn1c(Cc2ccccc2)nc2ccccc2c1=O)c1c(O)c2cccc3c2n(c1=O)CCC3 | 16% |
| CCOc1c(Br)ccc2c1sc1nc[nH]c(=O)c12 | 7.41% |
| CC(=O)NC(CCS(C)(=O)=O)C(=O)Nc1ccccc1C (stereo not drawn) | 11.1% |
| Cc1ccc(CNC(=O)CCSCc2ccc(C)cc2)cc1 | 8.45% |
| CS(=O)(=O)N(Cc1ccccc1)c1ccc(C(=O)Nc2ccccc2C(=O)O)cc1 | 14.4% |
| Cc1occc1-c1nnc(SCC(=O)NC(C)(C)C)n1C(C)c1ccccc1 (stereo not drawn) | 2.41% |
| COC(=O)CCC(=O)Nc1c(C)n(C)n(-c2ccccc2)c1=O | 7.9% |
| O=c1c2ccccc2nc(N/N=C/c2c(O)ccc3ccccc23)n1O | 12.6% |
